Reference: patent US20210008172A1 (OPKO BIOLOGICS, published 2021)
Read-outs that look alike come from different tables or passages of the source.

Key:
[1] = biological target: T1, recombinant IGF1 receptor fused to one fragment of beta-galactosidase, over expressed on cells (DISCOVERX … (UniProt P08069 31-1367)); assay: cell-based or functional assay
[2] = biological target: T1, recombinant IGF1 receptor fused to one …; assay: cell-based or functional assay; remark: listed apart in the source
[3] = biological target: T2, insulin receptor (cell based assay) (UniProt P06213); assay: cell-based or functional assay
[4] = biological target: T2, insulin receptor (cell based assay); assay: cell-based or functional assay; remark: listed apart in the source
[5] = biological target: T1, recombinant IGF1 receptor fused to one …; assay: cell-based or functional assay; remark: listed apart in the source
[6] = biological target: T2, insulin receptor (cell based assay); assay: cell-based or functional assay; remark: listed apart in the source
[7] = biological target: T3, IGFBP3 (rhIGFBP3, R&D, #675-B3-025) (human, UniProt P17936); assay: SPR (BIAcore), average KD against Increlex
T3 construct: Bought reagent, immobilized on the BIAcore sensor surface

[8] = biological target: T3, IGFBP3 (rhIGFBP3, R&D, #675-B3-025); assay: SPR (BIAcore #a); rhIGFBP3 immobilized, IGF1 variant injected
[9] = biological target: T3, IGFBP3 (rhIGFBP3, R&D, #675-B3-025); assay: SPR (BIAcore #b); rhIGFBP3 immobilized, IGF1 variant injected
[10] = biological target: T3, IGFBP3 (rhIGFBP3, R&D, #675-B3-025); assay: SPR (BIAcore #c); rhIGFBP3 immobilized, IGF1 variant injected
[11] = biological target: T3, IGFBP3 (rhIGFBP3, R&D, #675-B3-025); assay: SPR (BIAcore), average; rhIGFBP3 immobilized, IGF1 variant injected
[12] = biological target: T3, IGFBP3 (rhIGFBP3, R&D, #675-B3-025); assay: SPR (BIAcore); one figure told of MOD-1301-4 and MOD-1301-5 together

T2 sequence (P06213 28-1382 limits assumed): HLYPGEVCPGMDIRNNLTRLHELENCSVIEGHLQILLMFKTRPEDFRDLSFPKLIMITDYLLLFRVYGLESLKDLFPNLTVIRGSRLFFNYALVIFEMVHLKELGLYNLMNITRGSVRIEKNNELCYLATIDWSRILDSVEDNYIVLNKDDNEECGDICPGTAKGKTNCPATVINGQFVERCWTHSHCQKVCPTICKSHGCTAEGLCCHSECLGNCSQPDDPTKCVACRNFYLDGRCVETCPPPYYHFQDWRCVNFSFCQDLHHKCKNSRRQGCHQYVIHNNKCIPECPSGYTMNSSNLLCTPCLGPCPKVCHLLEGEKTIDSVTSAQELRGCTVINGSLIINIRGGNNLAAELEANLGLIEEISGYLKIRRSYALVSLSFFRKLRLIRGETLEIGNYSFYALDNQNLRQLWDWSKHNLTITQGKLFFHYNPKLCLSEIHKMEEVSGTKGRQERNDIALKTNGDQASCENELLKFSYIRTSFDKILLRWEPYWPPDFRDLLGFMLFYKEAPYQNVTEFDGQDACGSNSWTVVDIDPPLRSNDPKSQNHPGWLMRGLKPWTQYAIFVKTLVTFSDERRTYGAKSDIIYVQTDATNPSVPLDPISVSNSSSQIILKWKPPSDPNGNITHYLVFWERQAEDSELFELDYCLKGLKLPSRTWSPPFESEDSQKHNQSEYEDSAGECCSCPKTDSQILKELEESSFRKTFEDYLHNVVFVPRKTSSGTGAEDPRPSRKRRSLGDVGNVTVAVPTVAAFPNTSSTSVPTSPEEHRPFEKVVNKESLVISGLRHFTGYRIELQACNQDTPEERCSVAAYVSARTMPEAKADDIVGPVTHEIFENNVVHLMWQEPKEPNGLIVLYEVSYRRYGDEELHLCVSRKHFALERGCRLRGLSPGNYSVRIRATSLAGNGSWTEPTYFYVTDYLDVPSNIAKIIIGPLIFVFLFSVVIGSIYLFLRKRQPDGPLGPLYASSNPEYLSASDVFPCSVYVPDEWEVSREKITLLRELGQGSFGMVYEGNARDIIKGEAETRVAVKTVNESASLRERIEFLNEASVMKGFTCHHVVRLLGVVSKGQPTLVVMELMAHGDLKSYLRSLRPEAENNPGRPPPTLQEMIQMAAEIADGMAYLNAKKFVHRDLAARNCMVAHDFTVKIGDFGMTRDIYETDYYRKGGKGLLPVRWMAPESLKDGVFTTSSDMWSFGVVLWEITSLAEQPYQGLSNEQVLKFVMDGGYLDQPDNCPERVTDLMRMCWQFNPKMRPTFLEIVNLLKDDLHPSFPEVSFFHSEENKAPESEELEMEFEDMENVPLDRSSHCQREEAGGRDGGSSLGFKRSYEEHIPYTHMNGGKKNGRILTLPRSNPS
T1 sequence (P08069 31-1367): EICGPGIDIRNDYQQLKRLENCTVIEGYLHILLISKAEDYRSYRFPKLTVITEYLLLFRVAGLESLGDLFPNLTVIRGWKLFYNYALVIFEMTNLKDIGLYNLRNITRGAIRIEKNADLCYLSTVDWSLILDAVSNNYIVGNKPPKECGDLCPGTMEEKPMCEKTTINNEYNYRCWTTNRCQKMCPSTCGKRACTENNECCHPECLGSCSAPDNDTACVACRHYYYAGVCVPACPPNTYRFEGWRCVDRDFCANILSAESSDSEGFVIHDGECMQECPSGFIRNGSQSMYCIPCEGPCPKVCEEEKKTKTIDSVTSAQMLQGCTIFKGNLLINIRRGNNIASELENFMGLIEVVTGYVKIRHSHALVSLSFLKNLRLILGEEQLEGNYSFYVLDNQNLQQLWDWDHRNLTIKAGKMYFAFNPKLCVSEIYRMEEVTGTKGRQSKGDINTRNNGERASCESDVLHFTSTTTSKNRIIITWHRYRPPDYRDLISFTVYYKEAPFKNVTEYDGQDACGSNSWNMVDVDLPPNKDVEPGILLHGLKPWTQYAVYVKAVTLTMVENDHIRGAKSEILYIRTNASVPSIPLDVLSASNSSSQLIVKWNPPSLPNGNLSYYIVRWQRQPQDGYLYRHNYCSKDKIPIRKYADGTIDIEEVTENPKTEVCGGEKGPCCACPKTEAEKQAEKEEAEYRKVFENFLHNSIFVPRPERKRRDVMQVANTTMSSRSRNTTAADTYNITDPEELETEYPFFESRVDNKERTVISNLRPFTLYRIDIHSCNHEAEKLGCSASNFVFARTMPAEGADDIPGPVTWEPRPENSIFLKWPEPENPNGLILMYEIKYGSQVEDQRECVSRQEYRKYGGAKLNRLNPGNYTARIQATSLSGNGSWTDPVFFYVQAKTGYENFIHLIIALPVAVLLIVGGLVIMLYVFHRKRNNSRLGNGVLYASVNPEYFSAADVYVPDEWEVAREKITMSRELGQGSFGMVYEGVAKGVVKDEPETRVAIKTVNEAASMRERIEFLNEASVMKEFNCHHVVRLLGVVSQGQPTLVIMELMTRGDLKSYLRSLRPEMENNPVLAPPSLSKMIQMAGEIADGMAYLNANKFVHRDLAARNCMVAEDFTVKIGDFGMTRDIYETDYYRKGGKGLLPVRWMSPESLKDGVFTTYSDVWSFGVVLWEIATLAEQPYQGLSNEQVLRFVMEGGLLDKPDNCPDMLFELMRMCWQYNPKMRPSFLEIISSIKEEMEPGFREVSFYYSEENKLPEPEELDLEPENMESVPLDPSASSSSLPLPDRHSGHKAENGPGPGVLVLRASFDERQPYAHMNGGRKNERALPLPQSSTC
T3 sequence (P17936 28-291 limits assumed): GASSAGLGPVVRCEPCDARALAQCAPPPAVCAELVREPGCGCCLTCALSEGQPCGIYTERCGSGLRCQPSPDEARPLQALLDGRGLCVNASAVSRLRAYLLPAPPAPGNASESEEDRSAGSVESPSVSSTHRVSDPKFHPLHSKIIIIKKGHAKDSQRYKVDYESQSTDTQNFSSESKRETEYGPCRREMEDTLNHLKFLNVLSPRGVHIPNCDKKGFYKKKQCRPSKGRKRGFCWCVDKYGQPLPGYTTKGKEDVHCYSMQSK

Binder	Average EC50 (PathHunter IGF1R bioassay) [1]	Average fold reduction, as compare to Increlex [1]	EC50, CBA#1 (PathHunter IGF1R bioassay) [1]	EC50, CBA#2 (PathHunter IGF1R bioassay) [1]	EC50, CBA#3 (PathHunter IGF1R bioassay) [1]	EC50, CBA#5 (PathHunter IGF1R bioassay) [1]	Average EC50 (IGF1R CBA, selected clones) [2]	Average fold reduction, as compare to Increlex [2]	EC50, CBA #8.1 (IGF1R CBA, selected clones) [2]	EC50, CBA #8.2 (IGF1R CBA, selected clones) [2]	EC50, CBA #9.1 (IGF1R CBA, selected clones) [2]	EC50, CBA #9.2 (IGF1R CBA, selected clones) [2]	Affinity fold reduction vs Increlex [3]	Average EC50 (nM), insulin receptor CBA [3]	EC50 (nM), insulin receptor CBA, single run [3]	Fold reduction, as compared to Increlex [7]	Kd [8]	Kd [9]	Kd [10]	Kd [11]	also measured
MOD-1301-3 (IGF1-CTPx3) (ligand, Active (mature) protein without signal peptide and first propeptide; also called V3; variant 3) not shown	5.23 nM	11.2 fold	5.78 nM	3.86 nM	5.75 nM	5.52 nM	1.82 nM	2.67 fold	1.9 nM	1.76 nM	1.88 nM	1.76 nM	13.4 fold	200 nM	199 nM	12.8 fold	4.08 nM	1.72 nM	1.39 nM	2.4 nM	EC50 (nM), insulin receptor CBA, single run (1st value column) [3]: 212 nM; EC50 (nM), insulin receptor CBA, single run (2nd value column) [3]: 82.7 nM; EC50 (nM), insulin receptor CBA, single run (3rd value column) [3]: 164 nM; EC50 (nM), insulin receptor CBA, single run (5th value column) [3]: 340 nM; Average EC50, insulin receptor CBA (selected clones) [4]: 224 nM; EC50, insulin receptor CBA #4.1 (selected clones) [4]: 260 nM; EC50, insulin receptor CBA #4.2 (selected clones) [4]: 258 nM; EC50, insulin receptor CBA #5.1 (selected clones) [4]: 170 nM; EC50, insulin receptor CBA #5.2 (selected clones) [4]: 208 nM; Fold reduction (insulin receptor CBA) [4]: 7.9 fold; Average EC50 (nM), IGF-1 receptor stimulation (cell based assay) [5]: 1.82 nM; Average EC50 (nM), insulin receptor stimulation (cell based assay) [6]: 224 nM; Ratio (EC50 Insulin receptor/EC50 IGF-1 receptor) [6]: 123
MOD-1301-5 (CTPx2-IGF1-CTPx4) (ligand, Active (mature) protein without the hGH signal peptide; also called V5) not shown	9.76 nM	20.9 fold	6.98 nM	7.09 nM	9.37 nM	15.6 nM										22.1 fold	5.77 nM	3.84 nM	2.8 nM	4.14 nM	times less affinity than Increlex [12]: ~21 fold
MOD-1301-2 (IGF1-CTPx4) (ligand, Active (mature) protein without signal peptide and first propeptide; also called V2; variant 2) not shown	4.21 nM	9 fold	4.38 nM	2.63 nM	5.62 nM	4.22 nM	2.41 nM	3.53 fold	2.39 nM	1.63 nM	2.64 nM	2.98 nM	19.5 fold	292 nM	177 nM	9.9 fold	2.56 nM	1.67 nM	1.33 nM	1.85 nM	EC50 (nM), insulin receptor CBA, single run (1st value column) [3]: 238 nM; EC50 (nM), insulin receptor CBA, single run (2nd value column) [3]: 514 nM; EC50 (nM), insulin receptor CBA, single run (3rd value column) [3]: 200 nM; EC50 (nM), insulin receptor CBA, single run (5th value column) [3]: 332 nM; Average EC50, insulin receptor CBA (selected clones) [4]: 387 nM; EC50, insulin receptor CBA #4.1 (selected clones) [4]: 509 nM; EC50, insulin receptor CBA #4.2 (selected clones) [4]: 430 nM; EC50, insulin receptor CBA #5.1 (selected clones) [4]: 314 nM; EC50, insulin receptor CBA #5.2 (selected clones) [4]: 296 nM; Fold reduction (insulin receptor CBA) [4]: 13.7 fold; Average EC50 (nM), IGF-1 receptor stimulation (cell based assay) [5]: 2.41 nM; Average EC50 (nM), insulin receptor stimulation (cell based assay) [6]: 387 nM; Ratio (EC50 Insulin receptor/EC50 IGF-1 receptor) [6]: 161
MOD-1301-4 (CTP-IGF1-CTPx2) (ligand, Active (mature) protein without the hGH signal peptide; also called V4) not shown	7.7 nM	16.5 fold	5.96 nM	7.83 nM	8.17 nM	8.82 nM										19.4 fold	4.94 nM	3.42 nM	2.53 nM	3.63 nM	times less affinity than Increlex [12]: ~21 fold
MOD-1301-1 (CTPx3-IGF1) (ligand, Active (mature) protein without the hGH signal peptide; also called V1) not shown	6.2 nM	13.3 fold	5.76 nM	4.32 nM	6.6 nM	8.14 nM										15.3 fold	4.07 nM	2.57 nM	1.98 nM	2.87 nM	
